# In PMC4336329 (PLoS ONE, 2015):
# Hit rate of the full screen: of about 310,000 compounds, about 14,000 (4.5%) showed an effect of 50% or more. The effect is printed as a negative number. The list shows a part of the results.
# Molecular target: human ether-à-go-go-related gene (hERG) potassium channel (human, UniProt Q12809)
# Assay: primary screen, population patch clamp on CHO cells stably expressing hERG
# 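Note: peak tail current of the secondary pulse compared with the same well before compound.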
# Chain of human ether-à-go-go-related gene (hERG) potassium channel (Q12809 whole entry, looked up): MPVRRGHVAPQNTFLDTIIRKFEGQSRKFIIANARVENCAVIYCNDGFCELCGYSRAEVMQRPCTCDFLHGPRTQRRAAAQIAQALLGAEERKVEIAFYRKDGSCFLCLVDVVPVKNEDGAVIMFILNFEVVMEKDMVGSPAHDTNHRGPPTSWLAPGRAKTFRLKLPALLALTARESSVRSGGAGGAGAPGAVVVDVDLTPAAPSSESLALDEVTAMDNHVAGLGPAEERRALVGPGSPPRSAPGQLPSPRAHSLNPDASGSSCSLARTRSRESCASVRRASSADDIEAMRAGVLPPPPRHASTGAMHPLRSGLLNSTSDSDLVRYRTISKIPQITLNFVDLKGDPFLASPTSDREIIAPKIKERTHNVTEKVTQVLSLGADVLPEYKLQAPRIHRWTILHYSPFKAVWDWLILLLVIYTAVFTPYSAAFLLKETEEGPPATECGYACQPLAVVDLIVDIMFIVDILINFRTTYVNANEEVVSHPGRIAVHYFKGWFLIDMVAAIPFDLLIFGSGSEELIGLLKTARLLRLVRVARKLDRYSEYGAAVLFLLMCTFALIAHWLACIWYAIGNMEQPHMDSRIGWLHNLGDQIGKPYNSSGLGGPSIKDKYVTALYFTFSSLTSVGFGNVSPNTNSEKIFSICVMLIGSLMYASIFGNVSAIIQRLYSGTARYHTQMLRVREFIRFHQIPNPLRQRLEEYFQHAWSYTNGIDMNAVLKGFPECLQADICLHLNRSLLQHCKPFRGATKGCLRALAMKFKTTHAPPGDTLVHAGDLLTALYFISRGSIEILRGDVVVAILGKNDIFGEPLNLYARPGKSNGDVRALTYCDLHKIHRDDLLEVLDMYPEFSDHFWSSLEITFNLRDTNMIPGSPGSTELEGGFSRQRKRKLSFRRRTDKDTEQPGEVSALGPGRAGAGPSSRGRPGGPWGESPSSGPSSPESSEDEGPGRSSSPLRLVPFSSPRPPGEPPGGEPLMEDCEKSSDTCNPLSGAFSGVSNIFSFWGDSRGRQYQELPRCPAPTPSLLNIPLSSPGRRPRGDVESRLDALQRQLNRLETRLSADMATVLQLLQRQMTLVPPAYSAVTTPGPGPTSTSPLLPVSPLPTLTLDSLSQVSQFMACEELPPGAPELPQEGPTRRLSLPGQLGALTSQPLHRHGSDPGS
row,SMILES,"hERG current change (%, negative = inhibition) at 10uM"
1,Cc1ccc(Cl)cc1NC(=O)c1ccc(CSc2nnnn2C)cc1,-14.3%
2,CC1=NN(c2ccc(C)c(C)c2)C(=O)C1C(c1cccc(O)c1)C1C(=O)N(c2ccc(C)c(C)c2)N=C1C (stereo not shown),29.4%
3,O=C(COc1ccccc1)Nc1cc(Cl)ccc1Cl,29.3%
4,O=C(CCC1CCCN(C(=O)CCC(F)(F)F)C1)NCc1ccc(F)c(F)c1 (stereo not shown),4.86%
5,CN(C)C(=O)CSc1nnc(-c2ccncc2)n1Cc1ccco1,22.2%
6,O=C(c1cc(COc2c(F)cccc2F)on1)N1CCSCC1,-14%
7,CC(C)OC(=O)/C(=C/c1cccnc1)NC(=O)c1ccccc1,-1.48%
8,COc1ccc(-c2oc3ccc(-c4ccc(OC)nc4)cc3c2-c2ccc(OC)cc2)cc1,-5.37%
9,C/C(=C/C=N/Nc1nc(N2CCCCC2)nc(N2CCCCC2)n1)c1ccccc1,1.73%
10,COc1ccc(Cc2nn3c(-c4cc(OC)c(OC)c(OC)c4)nnc3s2)cc1,-22.6%
11,O=C(c1c[nH]c2ccccc12)N1CCN(Cc2ccccc2)CC1,-13.5%
12,COC(=O)Cc1cc(=O)n2[nH]cnc2n1,15.9%
13,O=S(=O)(NC1CC1)c1ccc(S(=O)(=O)N2CCC3(CC2)OCCO3)cc1,8.38%
14,COc1ccc(CCN2CCCC(CN(C)Cc3cc(OC)c(OC)c(OC)c3)C2)cc1 (stereo not shown),-51.6%
15,Cc1cc(C)n2c(SCc3ccc(Br)cc3)nnc2n1,-33.5%
16,CCC(C)c1ccc(NC(=O)Nc2cccnc2)cc1 (stereo not shown),-9.17%
17,C#CCOCCOCCOCCNc1nc(N2CCN(C(=O)[C@H](CCCCN)n3cc(C(N)CO)nn3)CC2)nc(N2CCN(C(=O)[C@H](CCCCN)n3cc(C(N)COC(=O)C(F)(F)F)nn3)CC2)n1.Cl (stereo partly shown),0.812%
18,CC1c2ccccc2N(NC(=O)Cc2ccccc2)C1C (stereo not shown),1.57%
19,CCC(C)c1ccccc1NC(=O)C(C)NCCN(C)C.O=C(O)C(=O)O (stereo not shown),10.3%
20,N#CCC(=O)N/N=C/c1cc([N+](=O)[O-])ccc1N1CCCC1,-6.93%
21,Cc1cc(OCCCCOc2ccc(C#N)cc2)ccc1[N+](=O)[O-],-47.2%
22,CCOC(=O)C1CCN(CC(=O)N2C(C)CCCC2C)CC1.O=C(O)C(=O)O (stereo not shown),3.55%

row,SMILES,"hERG current change (%, negative = inhibition) at 10uM"
1,O=C(CN1CCOCC1)N1CCN(S(=O)(=O)c2ccccc2)C1c1ccccc1 (stereo not shown),-10.2%
2,Cc1cc(=O)[nH]c(N/N=C/c2c[nH]c3ccccc23)n1,7.36%
3,Cc1cc(C)nc(N2CCC(C(=O)NNC(=O)Cc3ccccc3)CC2)n1,8.85%
4,COc1ccc(C(=O)OC(C)C(=O)Nc2cc(C(F)(F)F)ccc2Cl)c(OC)c1OC (stereo not shown),-13.4%
5,O=c1c(-c2ccccc2)c(O)c2ccccc2n1-c1ccccc1,6.56%
6,Cn1c(O)c(C=NCCN2CCNCC2)c(=O)n(C)c1=O,11.2%
7,Cc1ccc(S(=O)(=O)N(C)CCCC(=O)n2nc(C)cc2C)cc1,-4.63%
8,O=C(O)c1ccc2c(c1)C(=O)N(c1ccc(/C=C/C(=O)c3ccccc3)cc1)C2=O,14.6%
9,CCn1c(COc2ccccc2C)nnc1SCC(=O)CC(=O)Nc1ccccc1,-19.8%
10,O=C(Cn1nnc(-c2ccc(Cl)cc2)n1)NCC1CCCCC1,1.49%
11,CC(C)Oc1ccc(CN2CCCC(CO)(Cc3ccc(F)cc3)C2)cc1 (stereo not shown),-58.7%
12,O=C(Nc1ccc(F)cc1)Nc1ccc(N2CCOCC2)c2nonc12,6.45%
13,Cn1c(SCC(=O)NC2CCCCC2)nnc1-c1ccncc1,13.2%
14,CCN(CC(=O)Nc1ccc(N2CCOCC2)cc1)C(=O)Cc1ccccc1,3.76%
15,Cc1ccc2c(CC(=O)OCc3cc(=O)n4c(n3)sc3ccccc34)coc2c1,5.05%
16,Cc1ccc2nc(N(CCCN(C)C)C(=O)c3ccc(S(=O)(=O)N4CCCCCC4)cc3)sc2c1.Cl,-58%
17,CCOC(=O)c1cccnc1NC(=O)c1ccccc1,11.6%
18,O=C(Nc1ccncc1)c1cccc(F)c1,-1.23%
19,COc1ccc(N(CC(=O)NCc2ccccc2)S(=O)(=O)c2c(C)noc2C)cc1,2.7%
20,COc1ccc(C(=O)COC(=O)CNC(=O)C2CCCCC2)c(OC)c1,-11%
21,O=C(Oc1ccc(N(Cc2cccs2)C2=NS(=O)(=O)c3ccccc32)cc1)c1ccccc1F,-1.66%
22,CN(C)CCCn1c(SCC(=O)N2c3ccccc3Sc3ccccc32)nc2ccccc2c1=O,-39.5%

row,SMILES,"hERG current change (%, negative = inhibition) at 10uM"
1,CN(C)CCCNC(=O)c1cc(C(=O)Cc2ccccc2)c[nH]1,-8.15%
2,Cc1cc(C)c(C#N)c(N2CCN(Cc3ccc4c(c3)OCO4)CC2)n1,-45.1%
3,O=C(CN1CCCC1)N1CCN(c2ccccc2)CC1,2.58%
4,COc1ccc(CCNC(=O)CCSCc2ccccc2F)cc1OC,9.07%
5,O=C(NC(=S)Nc1ccc2c(c1)OCCO2)c1ccccc1,-0.633%
6,Cn1ncc2nnn(-c3ccccc3)c(=O)c21,-1.07%
7,COc1ccc(C(O)C(C)NC(C)C(O)c2ccc(OC)cc2)cc1 (stereo not shown),4.3%
8,O=C(COC(=O)/C=C/c1cccc(Br)c1)NC1CCCCCC1,-4.26%
9,COc1ccccc1-n1cc(-c2ccc(Cl)cc2)[nH]c1=O,-17%
10,CCOC(=O)C1CCCN(C(=S)NC2CCCC2)C1 (stereo not shown),-22.4%
11,O=C(CC(CC(=O)c1ccccc1)c1ccccc1)c1ccccc1,0.181%
12,Cc1nn(Cc2ccccc2)c2c1C(c1ccc(Cl)cc1)C(C#N)=C(N)O2 (stereo not shown),8.31%
13,COc1ccc(COc2cc(-c3cccc(OC)c3)nc3ccc(NC(=O)c4ccc(N(C)C)cc4)cc23)cc1,9.2%
14,CCCC(C(=O)O)n1c(O)c(C=C2N=c3ccccc3=N2)sc1=S (stereo not shown),6.16%
15,CC(=NCCCO)c1c(O)[nH]c(=O)[nH]c1=O,8.53%
16,CCCc1[nH]nc2c1C(c1ccc(O)c(OC)c1)C(C#N)=C(N)O2 (stereo not shown),-31.9%
17,COc1cc(C(=O)C(=O)c2cc(OC)c(O)c(OC)c2)cc(OC)c1O,5.6%
18,O=C(CN1C(=O)c2ccccc2C1=O)Nc1sc2c(c1C(=O)NCC1CCCO1)CCC2 (stereo not shown),-2.69%
19,CCCCn1c(N)c(N(CCOC)C(=O)c2ccc3c(c2)OCCO3)c(=O)[nH]c1=O,-1.84%
20,Cc1sc2ncn3c(C)nnc3c2c1C,8.78%
21,O=C(CN1C(=O)NC(Cc2ccccc2)C1=O)Nc1ccc(F)c(F)c1F (stereo not shown),1.56%
22,NC(=O)COc1ncn(-c2ccccc2)n1,15.4%

row,SMILES,"hERG current change (%, negative = inhibition) at 10uM"
1,CC(=O)Nc1ccc(NC(=O)CSc2nnc(NC(=O)Cc3ccc(F)cc3)s2)cc1,26%
2,Fc1ccc(-c2n[nH]c(=S)n2CC2CCCO2)cc1 (stereo not shown),16.7%
3,COc1ccc(CN2CCNC(=O)C2CC(=O)NCc2ccc(C)s2)c(OC)c1 (stereo not shown),-3.59%
4,COc1ccc(CC(=O)Nc2ccc3c(c2)CCC3)cc1,7.81%
5,COc1ccc(CCNC(=O)C(=O)NCC2OCCN2S(=O)(=O)c2ccc(Br)cc2)cc1 (stereo not shown),-7.02%
6,O=C(NC1CCS(=O)(=O)C1)C1CCCC1 (stereo not shown),10.9%
7,CC1CCCC(C)N1C(=O)COc1ccc(C(=O)N/N=C/c2ccc(C(=O)O)cc2)cc1 (stereo not shown),21.9%
8,O=C1c2cccc3cccc(c23)C(=O)N1CCN1CCN(CC(O)COc2ccc3ccccc3c2)CC1 (stereo not shown),-11.7%
9,CCn1nc(C)c([N+](=O)[O-])c1C(=O)NNC(=O)c1ccc(Cl)cc1,5.07%
10,CS(=O)(=O)N1CC2CCCN2c2ccc(C(F)(F)F)cc21 (stereo not shown),-2.83%
11,O=C(NCc1ccc(Cl)cc1)C(=O)c1c[nH]c2ccccc12,11.1%
12,S=C(NCc1ccc(Cl)cc1)N1CCN(c2ccccn2)CC1,-23.9%
13,O=C(CNS(=O)(=O)c1c(F)cc(F)cc1Br)OCC(=O)N1CCCC1=O,-3.21%
14,CC1(C)CC(=O)C(CS(=O)(=O)c2ccccc2)=C(O)C1,10.4%
15,CN(C)c1ccc(NC(=O)Nc2cccc3ccccc23)cc1,36.5%
16,CC(C)c1ccccc1-n1cc[nH]c1=S,13.4%
17,Cc1ccccc1NS(=O)(=O)c1cccc(C(=O)Nc2cccc(C(=O)O)c2)c1,22.4%
18,COc1cccc(OC)c1C(=O)Nc1nc2cc3c(cc2s1)OCO3,11%
19,O=C(C1CCC1)N1CCc2cc(S(=O)(=O)N3CCN(c4ccccn4)CC3)ccc21,-8.07%
20,CC#CC(=O)N1CCC(CO)(CCc2ccccc2)CC1,1.33%
21,COc1ccc(NC(=O)CCCn2c(=S)[nH]c3ccccc3c2=O)cc1,16.5%
22,CCOc1cc(/C=N/NC(=O)COc2ccccc2C)ccc1OC(=O)c1cccs1,5.36%
